The other results are listed elsewhere or left out. Shown are side measurements of this screen, not its main read-out; they come without a call. Compounds called inactive in the main read-out are mostly missing here.

A short description of this test: beta-lactam sensitization of Mtb H37Rv, H37Rv (AID 434955).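 Note: growth measured after seven days incubation then overnight dye step; 0% = bacteria only wells and 100% = bacteria with antibiotic.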 The settings on record: M. tuberculosis H37Rv growth with meropenem, percent inhibition; measured here: primary screen without meropenem; at 25 µM.
With `C=CCSc1nnc2c(n1)OC(c1c(C)[nH]n(-c3ccccc3)c1=O)Nc1ccccc1-2` (stereo unspecified), the inhibition came out at 5.55%.

Take `Cc1cc(C(=O)Nc2nnc(C(F)(F)F)s2)no1`: the inhibition came out at 1.21%.

Consider `CCn1c(CSc2nc(C)cs2)nc2cc(S(=O)(=O)N(C)C)ccc21`, for which the inhibition is -2.89%.

On to `O=C(CCCN=C1NS(=O)(=O)c2ccccc21)OCC(=O)N1CCc2ccccc21`, for which the inhibition came out at 1.2%.

As for `Cc1cc2nc(C)n(CCCNC(=O)Nc3ccc(F)cc3)c2cc1C`, the inhibition worked out at 5.04%.

As to `CCOC(=O)c1[nH]c(C)c(C(=O)Nc2cc(OC)ccc2OC)c1C`, the inhibition is -0.71%.

Turning to `COc1ccc(-c2csc(-c3cccs3)n2)c(OC)c1`, the inhibition turned out to be 10.1%.

As for `COC(C(=O)Nc1ccnn1C1CCN(Cc2nccs2)CC1)c1ccccc1` (stereo unspecified), the inhibition turned out to be 0.27%.

Regarding `CCOCC(=O)Nc1cc(C(F)(F)F)ccc1Oc1cccc(Br)c1`, the inhibition was found to be 33.9%.

On to `COCc1nnc(NC(=O)c2ccc(S(=O)(=O)N(C)c3ccccc3)cc2)o1`, for which the inhibition was determined as 11.1%.

For `O=C1C(Cl)=C(N2CCCCCC2)C(=O)N1c1ccccc1Cl`, the inhibition was -5.67%.

`COC(=O)c1ccc(NC(=O)CSc2nn3c(=O)c(C)nnc3s2)cc1`: the inhibition was determined as 0.81%.

As for `Cc1ccc(OCc2nnc(SCc3ccc(C#N)cc3)n2-c2ccc(C)cc2)cc1`, the inhibition was 8.31%.

With `Cc1noc(C)c1COc1ccc(C(=O)Nc2ccccn2)cc1`, the inhibition was -1.09%.

Regarding `N#Cc1c(N)[nH]c(=S)c(C#N)c1-c1ccccc1`, the inhibition was -4.37%.

For the compound `COC(=O)C1=C(C)N=C2SCCC(=O)N2C1c1ccc(C(=O)OC)cc1` (stereo unspecified), the inhibition is -11.6%.

Take `COc1cc(NC(=O)C23CC4CC(C2)CC(n2nnc(C)n2)(C4)C3)c(OC)cc1Cl`: the inhibition came out at 2.98%.

`COc1ccc(NS(=O)(=O)c2ccc3nc(COc4ccc(C#N)cc4)[nH]c3c2)cc1`: the inhibition came to 4.82%.

On to `O=C(NN=C(Cc1ccccc1)Cc1ccccc1)c1ccccc1F`, for which the inhibition amounted to 9.42%.

Take `O=C(CSc1nc2ccccc2o1)N1CCOCC1`: the inhibition is -2.89%.

Turning to `O=C(Cc1ccccc1Cl)Nc1nc2ccccc2[nH]1`, the inhibition came to 4.62%.

Turning to `O=C(CN1CCN(S(=O)(=O)c2ccc(F)cc2)CC1)Nc1ccc2c(c1)OCCO2`, the inhibition is 32.5%.

Consider `Cc1nn(-c2ccccc2)cc1/C=N/NC(N)=S`, for which the inhibition stood at 34.3%.

Take `O=C(c1ccc([N+](=O)[O-])cc1)N(Cc1cccs1)C1CCS(=O)(=O)C1` (stereo unspecified): the inhibition came out at 0.03%.

Consider `CC(=O)N1CCc2cc(S(=O)(=O)N3CCc4ccccc43)ccc21`, for which the inhibition was determined as 6.74%.

On to `Cc1ccc(-c2nc3sc(C(N)=O)c(N)c3c3c2CCCC3)cc1`, for which the inhibition came to 4.43%.

With `COc1cc(NC(=O)c2cc(Cl)ccc2Cl)ccc1-c1cc2ccccc2oc1=O`, the inhibition is 70.4%.

For the compound `Cc1nc(SCCc2ccccc2)[nH]c(=O)c1C`, the inhibition came to 3.62%.

`Cc1ccsc1C(=O)NNC(=O)c1csc(N2CCOCC2)n1`: the inhibition came out at 18.1%.

Take `CCOc1ccc(CCNC(=O)c2c(C)nn(-c3ccccc3)c2Cl)cc1OCC`: the inhibition was -2.58%.

For the compound `Cn1c(COc2ccc(Cl)cc2)nnc1SCC(=O)Nc1ccc2c(c1)CCC2`, the inhibition was found to be 58.3%.

For `Cc1ccc(C(=O)Nc2c(C)cc(C)c3cccnc23)cc1`, the inhibition is 32%.

As for `Cc1n[nH]c(C)c1CN(C)C(=O)c1cc(COc2ccc(F)c(F)c2)on1`, the inhibition was found to be 4.04%.

Turning to `COc1ccccc1CN1CC(C(=O)N(C)Cc2ccncc2C)CCC1=O` (stereo unspecified), the inhibition was 4.24%.

Take `CCCCC1(c2ccc(F)cc2)NC(=O)N(CC(=O)N2CCN(C(=O)c3ccco3)CC2)C1=O` (stereo unspecified): the inhibition was -2.76%.

For `O=C(Nc1nc(COc2ccccc2)cs1)C12CC3CC(CC(C3)C1)C2`, the inhibition was found to be 28.2%.

Consider `CN(C)CCNC(=O)C1(O)c2cc(Br)ccc2NC(=O)N1c1ccc(Cl)cc1` (stereo unspecified), for which the inhibition is 1.63%.

As for `CCOC(=O)CSc1nnc(Cn2c(=O)sc3ccccc32)n1C`, the inhibition is -8.44%.

For the compound `Cc1ccc(S(=O)(=O)Nc2cccc(-n3cnnn3)c2)cc1C(=O)O`, the inhibition was -5.17%.

Take `NNC(=O)CSc1cccc2cccnc12`: the inhibition came out at 8.21%.

Turning to `CC(=O)N1CCc2c(sc(NC(=O)CCS(=O)(=O)c3ccccc3)c2C#N)C1`, the inhibition is 1.13%.

For `O=C(Nc1ccnn1C1CCN(C(=O)CCc2ccc(F)cc2)CC1)C1CCOC1` (stereo unspecified), the inhibition is -4.59%.

Consider `Nc1c(Cl)cc(-c2csc(N3CCCC3c3nc4cc(Cl)c(N5CCCCC5)cc4n3CCCO)n2)cc1Cl` (stereo unspecified), for which the inhibition is 1.58%.

For the compound `Cc1ccc(S(=O)(=O)Nc2cc(C(=O)O)ccc2N2CCCCC2)cc1`, the inhibition was determined as 1.06%.

For `Cc1cc(C)n(-c2nc3ccccc3c(=O)n2OCC(=O)N(C)C)n1`, the inhibition came out at 6.74%.

Turning to `COc1cc2[nH]c(=O)n(CCC(=O)NCCC(C)C)c(=O)c2cc1OC`, the inhibition is -1.53%.

On to `Cc1ccc(C(=O)N(CN2CCCC2=O)c2ccc(F)cc2)cc1C`, for which the inhibition was 0.47%.

Turning to `Cc1ccccc1Cn1nc(C)c(NC(=O)C2c3ccccc3Oc3ccccc32)c1C`, the inhibition was found to be 3.32%.

Regarding `COc1ccc(OCc2cc(C(=O)NCc3nc(C)cs3)no2)c(Cl)c1`, the inhibition came out at 4.57%.

Consider `COc1ccccc1N1CCN(C2CCCN(S(=O)(=O)c3ccccc3)C2)CC1` (stereo unspecified), for which the inhibition came to 10.1%.

On to `CCOC(=O)c1[nH]c(C)c(C(=O)Nc2ccc(Cl)cc2)c1C`, for which the inhibition is -0.24%.

Turning to `Cc1cc(Br)ccc1OCC(=O)NC1CCCC1`, the inhibition was -0.4%.

Take `CC1=C(C(=O)OC(C)(C)C)C(c2cccc3ccccc23)NC(=O)N1` (stereo unspecified): the inhibition was 11.3%.

`COc1cc(Nc2cc(C)nc3ncnn23)cc(OC)c1OC`: the inhibition is -0.63%.

With `CCN=c1scc(-c2ccccc2)n1/N=C/c1ccccn1`, the inhibition amounted to 24.1%.

Regarding `CCCN1CCc2c(sc(NC(=O)c3ccc(S(=O)(=O)N4CCN(C(=O)OCC)CC4)cc3)c2C(N)=O)C1`, the inhibition was 6.04%.

Consider `Cc1cccc2cc(CN(CC3CCCO3)C(=O)c3ccncc3)c(=O)[nH]c12` (stereo unspecified), for which the inhibition was -6.75%.

`CCN1CCc2c(sc(NC(=O)c3ccc(S(=O)(=O)N(C)CC4CCCO4)cc3)c2C(N)=O)C1` (stereo unspecified): the inhibition amounted to 2.57%.

Regarding `Oc1cccc2ccc(/C=C/c3ccc(Br)s3)nc12`, the inhibition is -7.81%.

For `Cc1ccc(CNC(=O)c2cn(C)c3ccc(S(=O)(=O)N4CCOCC4)cc3c2=O)cc1`, the inhibition is 41%.

With `COc1cc(NC(=O)C2CC2)c(C(=O)O)cc1OC`, the inhibition is 4.67%.

On to `CC(C)c1ccc(-c2nnn(Cc3nc4ccccc4s3)n2)cc1`, for which the inhibition is -3.06%.

Turning to `C#CCN(C(=O)c1cc(COc2ccc(C)c(C)c2)on1)C1CCCCC1`, the inhibition was 1%.

With `C/C(=N\NC(=S)Nc1ccccc1C)c1cc2ccccc2o1`, the inhibition is 35.1%.

As for `CCn1c(SCC(=O)Nc2cccc(NC(C)=O)c2)nc2c([nH]c3ccccc32)c1=O`, the inhibition turned out to be 7.15%.

Regarding `CCc1cc2c(=O)c(-c3nc4ccccc4n3C)coc2c(CN2CCCC(C)C2)c1O` (stereo unspecified), the inhibition is 4.74%.

With `CC1(C)c2[nH]c3ccccc3c2C[C@H]2C(=O)N(N)CC(=O)N21`, the inhibition is -0.08%.

For `Cc1ccc(S(=O)(=O)NC2CC2)s1`, the inhibition is 5.62%.

With `O=c1c2c(nc3n1CCCCC3)sc1c(O)c(Br)ccc12`, the inhibition came to 24.3%.

Regarding `O=[N+]([O-])C(/C=C(/Cl)[N+](=O)[O-])=C(N1CCCCC1)N1CCCCC1`, the inhibition worked out at 6.03%.

Turning to `O=C(COC(=O)c1ccc([N+](=O)[O-])s1)NCc1ccccc1`, the inhibition worked out at 40.3%.

In the case of `Cc1cc(C(=O)Nc2nnc(-c3ccccc3)s2)no1`, the inhibition amounted to 32.4%.

With `CCOc1ccc(-n2cc(-c3ccc(OC)c(OC)c3)[nH]c2=S)cc1`, the inhibition was -1%.

Regarding `CSCCC(C)N1CCC(Oc2ccc(C(=O)N3CCCC3)cc2)CC1` (stereo unspecified), the inhibition was -3.11%.

For `CC(CCc1ccccc1)NC(=O)COc1ccc(S(=O)(=O)N2CCOCC2)cc1[N+](=O)[O-]` (stereo unspecified), the inhibition is -8.09%.

For `Cc1nn(CCC(=O)NNC(=S)NCC(C)C)c(C)c1Br`, the inhibition is -0.97%.

For the compound `COc1ccc(CCC(=O)N2CCCC(Nc3ccccc3)C2)cc1OC` (stereo unspecified), the inhibition was found to be 4.3%.

On to `CCOc1cccc(C(=O)Nc2cc(-c3nn4c(C)nnc4s3)ccc2C)c1`, for which the inhibition came to 45.9%.

Regarding `O=C(Nc1ccc2c(c1)nc1n2CCN(Cc2ccccc2)C1)c1cccs1`, the inhibition is -10.9%.

With `Cc1cccc(/C=C/c2onc(C)c2S(=O)(=O)N2CCC(C(=O)NC(C)(C)C)CC2)c1`, the inhibition is -14.8%.

Turning to `CCC1(c2ccccc2)NC(=O)N(CC(=O)N2CCN(S(=O)(=O)c3ccccc3)CC2)C1=O` (stereo unspecified), the inhibition was -1.86%.

Turning to `Cc1noc(C)c1S(=O)(=O)N1CCN(Cc2ccc3c(c2)OCO3)CC1`, the inhibition is -3.65%.

For `CCOC(=O)CC1CCCCN1C(=O)CCCn1nnnc1CN1CCC(C)CC1` (stereo unspecified), the inhibition is -0.48%.

For `Cn1c(O)c(/C=C2\C=Nc3ccc(Br)cc32)c(=O)n(C)c1=O`, the inhibition is -1.71%.

Consider `COc1ccc(C(=O)OCCN=C2NS(=O)(=O)c3ccccc32)cc1OC`, for which the inhibition was 1.25%.

Turning to `C#Cc1ccc(CN2CCC(Oc3ccc(C(=O)NCc4ccccn4)cc3)CC2)cc1`, the inhibition turned out to be 8.56%.

With `COc1cc(NC(=O)C2CC(c3cccc(OC)c3OC)=NO2)cc(OC)c1OC` (stereo unspecified), the inhibition is -5.06%.

In the case of `Cc1ccc(Nc2nc(N)nc(CC#N)n2)cc1`, the inhibition worked out at 42.9%.

With `Cc1nnsc1C(=O)NCc1c(F)cccc1Cl`, the inhibition was 8.28%.

For `Cc1ccc(C)c(S(=O)(=O)N2CCN(CC(=O)NC(C)c3ccccc3)CC2)c1` (stereo unspecified), the inhibition is 8.95%.

Regarding `Cc1ccc(NC(=O)c2ccccc2N(C)S(C)(=O)=O)cc1C`, the inhibition stood at 0.48%.

Turning to `CN(C)CCNC(=O)c1ccc(CS(=O)(=O)c2c(Cl)cccc2Cl)o1`, the inhibition was -0.68%.

As to `CCOC(=O)/C(C#N)=C/c1ccc(OCC(=O)Nc2ccccc2)c(OC)c1`, the inhibition stood at 38.8%.

Consider `COc1ccc(CN2CCNC(=O)C2CC(=O)N(C)Cc2ccno2)c(F)c1` (stereo unspecified), for which the inhibition is -8.63%.

For `Cc1cccc2sc(N(CCN(C)C)C(=O)c3ccc4ccccc4c3)nc12`, the inhibition came out at 3.86%.

As for `CCOc1ccc2nc(SC3CC(=O)N(c4cccc(OC)c4)C3=O)sc2c1` (stereo unspecified), the inhibition is 23.5%.

In the case of `Cc1c(CNC(=O)C2CCC(=O)N(CCc3ccccc3)C2)cnn1C` (stereo unspecified), the inhibition was -3.89%.

Take `COC(=O)c1ccc(-c2csc(NC(=O)C3=COCCO3)n2)cc1`: the inhibition was determined as 4.71%.

Consider `CCCCN(C)CC(O)Cn1cc(/C=C/C(=O)c2ccc(OCC)cc2)c2ccccc21` (stereo unspecified), for which the inhibition turned out to be 99.5%.

For the compound `O=C(CN(c1ccccc1F)S(=O)(=O)c1ccccc1)Nc1ccc2c(c1)OCCO2`, the inhibition is -1.79%.

With `CCCCSC(=S)NC1CCS(=O)(=O)C1` (stereo unspecified), the inhibition amounted to 5.96%.

Turning to `COc1cccc(NC(=O)c2ccccc2N2C(=O)C3C4C=CC(C4)C3C2=O)c1` (stereo unspecified), the inhibition was -7.44%.

With `CCOC(=O)c1c(CN2CCCCC2C)oc2ccc(OC)cc12` (stereo unspecified), the inhibition was -6.61%.

For `Cc1ccc(C(=O)Nc2ccc(Cl)cc2C(=O)c2ccccc2)cc1`, the inhibition stood at 24.2%.

In the case of `Cc1ccc(-c2nc(CS(=O)CC(=O)NCCN(CC(C)C)CC(C)C)c(C)o2)cc1` (stereo unspecified), the inhibition was -5.1%.

As for `CSc1ccc(Cn2nnc(C(=O)NCc3ccccc3)c2N)cc1`, the inhibition is -5.88%.

Usually inhibition stands for the relative decrease from the control value, in per cent.

These data come from PubChem BioAssay AID434955 (Southern Research Specialized Biocontainment Screening …, 2010).
